According to PubChem BioAssay AID485294 (National Center for Advancing Translational Sciences (NCATS), 2010):
About 150 (0.041%) of roughly 370,000 compounds were called active. The inconclusive results got no clear call from the source; some entries with a clear call stand among them for comparison. Calls come from the whole dose curve; as a rule, active = well fitted inhibition curve with a large enough effect; inconclusive = small, poorly fitted or top-dose-only effect; inactive = flat fitted curve, though single readings scatter. Potencies of inconclusive entries are left out as doubtful fits.
Note: nearly all actives have a fitted effect of over 25% in size.
Potency is the fitted concentration of half-maximal effect; tags give direction and shape of the fitted curve.
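Throughout, for activity change, negative = inhibition: 0% = no-compound wells and -100% = no-enzyme wells.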

Each compound was assayed against Beta-lactamase (Escherichia coli (strain K12)) (UniProt P00811) (assay: qHTS Inhibitors of AmpC Beta-Lactamase (assay with detergent)). Conditions: AmpC hydrolysis of nitrocefin, absorbance 480 nm, 0.01% Triton; activity change, negative = inhibition: at 114 µM (top of the series).
UniProt P00811, sequence (P00811 whole entry, looked up): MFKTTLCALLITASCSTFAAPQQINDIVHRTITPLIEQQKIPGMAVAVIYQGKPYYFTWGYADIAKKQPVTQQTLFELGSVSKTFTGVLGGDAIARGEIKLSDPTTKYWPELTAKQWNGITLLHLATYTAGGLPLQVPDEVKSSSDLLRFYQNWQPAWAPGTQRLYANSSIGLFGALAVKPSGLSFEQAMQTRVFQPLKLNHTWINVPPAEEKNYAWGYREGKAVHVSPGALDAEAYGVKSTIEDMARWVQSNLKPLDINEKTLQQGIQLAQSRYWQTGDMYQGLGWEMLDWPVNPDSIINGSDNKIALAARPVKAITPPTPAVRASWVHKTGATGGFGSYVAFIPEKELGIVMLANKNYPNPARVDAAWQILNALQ
Summary of the method: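 20 mM phosphate pH 7.0 + 0.01% (detergent screen) or 0.0001% Triton X-100; 5.3 nM AmpC reagent; cpd preinc 15 min RT; nitrocefin (800 uM stock) to start; A480 q20 s × 4 min; Activity was normalised to no-enzyme and no-compound control wells.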
S=C(NCc1ccccn1)Nc1ccc(Cl)c(Cl)c1 was tested, and the “activity change, negative = inhibition” value was inactive: -7.19%. For CCOc1ccc(N(CC(=O)NCc2ccccc2)C(=O)Cn2nnc(-c3ccc(C)o3)n2)cc1, the Potency was inconclusive [inhibitor, full curve, poor fit]. O=C(NCCCc1ccccc1)c1cccc([N+](=O)[O-])c1 was tested, and the Potency was inconclusive [inhibitor, single point]. With CC/C(=N/N=C(\CC)c1ccccc1)c1ccccc1 the Potency was inconclusive [inhibitor, full curve, poor fit]. With Cc1nc(Nc2ccc3c(c2)OCCO3)c2oc3ccccc3c2n1 the Potency was inconclusive [inhibitor, full curve]. In the case of O=C(OCC(=O)N1CCCc2ccccc21)c1cncc(Br)c1, the “activity change, negative = inhibition” value is reported as inactive: -3.97%. In the case of CS(=O)(=O)N(CC(=O)N1CCCC1)c1cccc(F)c1, the Potency is reported as inconclusive [inhibitor, full curve, poor fit]. In the case of C=CCNC(=O)CCC(=O)NNc1nc2ccccc2c2nc(-c3ccccc3)nn12, the Potency is reported as inconclusive [inhibitor, partial curve, poor fit]. For Cc1ccc(C(C)C)c(OCc2n[nH]c(=S)o2)c1, the “activity change, negative = inhibition” value was inactive: 1.14%. In the case of COc1cccc(NC(=O)NC2CCCCCCC2)c1, the Potency is reported as inconclusive [inhibitor, full curve, poor fit]. O=C(CCS(=O)(=O)c1cc2c(cc1Cl)NC(=O)CO2)NCc1ccccc1 was tested, and the Potency was “inactive”. With Cc1cc2c(c(SCC#N)n1)C(=O)OC2 the Potency was inconclusive [inhibitor, full curve, poor fit]. With COc1ccc(-n2nnnc2SCC(=O)Nc2cccc(C)n2)cc1OC the Potency was inconclusive [inhibitor, full curve, poor fit]. With COc1ccc(/C=N/NC(=O)C(=O)Nc2ccccn2)cc1OC the Potency was inconclusive [inhibitor, single point]. COc1ccc(-c2cc(C(F)(F)F)nc(N3CCCCCC3)n2)cc1 was tested, and the Potency was inconclusive [inhibitor, full curve, poor fit]. In the case of CN(C)/C=N/c1sc2c(c1C#N)CC(C)(C)NC2(C)C, the “activity change, negative = inhibition” value is reported as inactive: -9.64%. With CCN(c1ccccc1)S(=O)(=O)c1cc(C(=O)Nc2ccccc2Cl)ccc1F the Potency was inconclusive [inhibitor, single point]. CCCCC(C(=O)O)C(C)CC(=O)Nc1cccc(C(=O)O)c1 (centres undefined) was tested, and the Potency was inconclusive [inhibitor, partial curve, poor fit]. With Cc1ccc(C(=O)NCc2ccccc2CN2CCCC2)cc1S(=O)(=O)N1CCOCC1 the Potency was inconclusive [inhibitor, full curve, poor fit].
